{"source": "the supplement of paper PMC8728848", "binders": {"B1": {"name": "Epa1-NP-mutant-E227G (Candida glabrata), Q6VBJ0 (protein)", "chain": "MILNPALFLNKCVCIYTTLILLLLTNGGYATSSNDISLASKDPTTFPLGCSPDITTPKKGLSMELYSYDFRKKGSYPCWDAAYLDPNYPRTGYKSHRLLAKVDGVTGNINFYYHATKGCTPQLGHLPASYNYPKPLTMTNFTMLLYGYFRPKVTGFHTFTISADDLLFVNFGAGNAFDCCRRDSSADHFGNYQAYAIWGSKTAKDELTVHLDAGVYYPIRLFYNNRGYDGALSFTFKTESNENTVSDFSEYFFSLDDTEEGCPGLISYDSSCASVKTSKIIGIDYHTETPNENLVPITKTIYHLGIPCTGTTTTPLCGSGFYDPLANKCVTINTSSTSSVTKTTSHTTSKEVSFHSSISSQKTLIPKSIPSPYGPIKSQSIPTEMETSSEISSSEYAFSDVISTPSHSPYTKKHSSLNSSSYTSTVIHSLTSYSISQGIFSTSLSEQNITSKSSTDKFSTATSMSNNITQSSIIISQFSTNNENYTTTSMHTSSDKISTETLNNSISTTTSILFSNSSTILKNNTTIISSDKDTHYHPVNPTIVCSTNKTEIICASITQPSISNSNNHWSSSVLKFNSTTVRSTLPSSAGSNETSINVPFSSSTESNTSTSSTSTSNSKMVRSTLPSSAGSNETSISVPFSSSTESNTSTSSTSTSNSKMVRSTLPSSAGSNETSINVPFSSSTESNTSTSSTSTSNSKTVRSTPFSSAGIIMTSLSQRNNKSASSYASSNSKCYNTADSCRKVHSTPSYLLTSSYTSEGVDYDCSLVSTKLKINDTNCVNNKHTTKSCLKTSVTTTIPTLEIKTARKSSSNTIGLHSYPTSSPNKSISSAPIIGYISSFKTIKTASPSYQTSDLTTITTITSLNNPGSTAVENTHESNDKSRKTSSNDISSKHSVIKETKDAVESSNKSHQTNTLKCSSIIIASSSHNSYESLGGTTLTLTLSKVYSPQNNDTLPFLEISEVNPSRTVLPESSKMMQYLTSTEERNKTARNTIATNIVSISTFHFEGEGNAIRMGYTQLLLMLIGIIVMNIGT"}}, "assay_in_all_cases": "glycan array binding signal (z-score within array); higher = stronger binding", "conditions_in_all_cases": "glycan notation: IUPAC condensed, linker removed; mutation: E227G", "key": {"[1]": {"biological_target": "Fuc(a1-2)[Gal(a1-3)]Gal(b1-4)GlcNAc(b1-2)Man(a1-3)[Fuc(a1-2)[Gal(a1-3)]Gal(b1-4)GlcNAc(b1-2)Man(a1-6)]Man(b1-4)GlcNAc(b1-4)GlcNAc", "method_in_brief": "(§1)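 The binding signal is a Z-score computed within each array and averaged over linkers. Arrays of the same protein sequence at different concentrations or buffers were also averaged together. Data originate from 3228 arrays in the Consortium for Functional Glycomics database, kept only where the protein sequence was available.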"}, "[2]": {"biological_target": "Fuc(a1-2)[Gal(a1-3)]Gal(b1-4)GlcNAc(b1-2)Man(a1-3)[Fuc(a1-2)[Gal(a1-3)]Gal(b1-4)GlcNAc(b1-2)Man(a1-6)]Man(b1-4)GlcNAc(b1-4)[Fuc(a1-6)]GlcNAc", "method_in_brief": "as §1"}, "[3]": {"biological_target": "Fuc(a1-2)[Gal(a1-3)]Gal(b1-4)GlcNAc(b1-3)GalNAc", "method_in_brief": "as §1"}, "[4]": {"biological_target": "Fuc(a1-2)[Gal(a1-3)]Gal(b1-4)GlcNAc(b1-3)[Fuc(a1-2)[Gal(a1-3)]Gal(b1-4)GlcNAc(b1-6)]GalNAc", "method_in_brief": "as §1"}, "[5]": {"biological_target": "Fuc(a1-2)[Gal(a1-3)]Gal(b1-4)GlcNAc(b1-6)GalNAc", "method_in_brief": "as §1"}, "[6]": {"biological_target": "Fuc(a1-2)[Gal(a1-3)]Gal(b1-4)[Fuc(a1-3)]Glc", "method_in_brief": "as §1"}, "[7]": {"biological_target": "Fuc(a1-2)[Gal(a1-3)]Gal(b1-4)[Fuc(a1-3)]GlcNAc", "method_in_brief": "as §1"}, "[8]": {"biological_target": "Fuc(a1-2)[Gal(a1-3)]Gal(b1-4)[Fuc(a1-3)]GlcNAc(b1-3)GalNAc", "method_in_brief": "as §1"}, "[9]": {"biological_target": "Fuc(a1-2)[Gal(a1-4)]Gal(b1-4)GlcNAc", "method_in_brief": "as §1"}, "[10]": {"biological_target": "Fuc(a1-2)[GalNAc(a1-3)]Gal", "method_in_brief": "as §1"}, "[11]": {"biological_target": "Fuc(a1-2)[GalNAc(a1-3)]Gal(b1-3)GalNAc(a1-3)[Fuc(a1-2)]Gal(b1-4)GlcNAc", "method_in_brief": "as §1"}, "[12]": {"biological_target": "Fuc(a1-2)[GalNAc(a1-3)]Gal(b1-3)GalNAc(b1-3)Gal(a1-4)Gal(b1-4)Glc", "method_in_brief": "as §1"}, "[13]": {"biological_target": "Fuc(a1-2)[GalNAc(a1-3)]Gal(b1-3)GlcNAc", "method_in_brief": "as §1"}, "[14]": {"biological_target": "Fuc(a1-2)[GalNAc(a1-3)]Gal(b1-3)GlcNAc(b1-2)Man(a1-3)[Fuc(a1-2)[GalNAc(a1-3)]Gal(b1-3)GlcNAc(b1-2)Man(a1-6)]Man(b1-4)GlcNAc(b1-4)GlcNAc", "method_in_brief": "as §1"}, "[15]": {"biological_target": "Fuc(a1-2)[GalNAc(a1-3)]Gal(b1-3)GlcNAc(b1-2)Man(a1-3)[Fuc(a1-2)[GalNAc(a1-3)]Gal(b1-3)GlcNAc(b1-2)Man(a1-6)]Man(b1-4)GlcNAc(b1-4)[Fuc(a1-6)]GlcNAc", "method_in_brief": "as §1"}, "[16]": {"biological_target": "Fuc(a1-2)[GalNAc(a1-3)]Gal(b1-3)GlcNAc(b1-3)GalNAc", "method_in_brief": "as §1"}, "[17]": {"biological_target": "Fuc(a1-2)[GalNAc(a1-3)]Gal(b1-3)GlcNAc(b1-6)GalNAc", "method_in_brief": "as §1"}, "[18]": {"biological_target": "Fuc(a1-2)[GalNAc(a1-3)]Gal(b1-4)Glc", "method_in_brief": "as §1"}, "[19]": {"biological_target": "Fuc(a1-2)[GalNAc(a1-3)]Gal(b1-4)GlcNAc", "method_in_brief": "as §1"}, "[20]": {"biological_target": "Fuc(a1-2)[GalNAc(a1-3)]Gal(b1-4)GlcNAc(b1-2)Man", "method_in_brief": "as §1"}, "[21]": {"biological_target": "Fuc(a1-2)[GalNAc(a1-3)]Gal(b1-4)GlcNAc(b1-2)Man(a1-3)[Fuc(a1-2)[GalNAc(a1-3)]Gal(b1-4)GlcNAc(b1-2)Man(a1-6)]Man(b1-4)GlcNAc(b1-4)GlcNAc", "method_in_brief": "as §1"}, "[22]": {"biological_target": "Fuc(a1-2)[GalNAc(a1-3)]Gal(b1-4)GlcNAc(b1-2)Man(a1-3)[Fuc(a1-2)[GalNAc(a1-3)]Gal(b1-4)GlcNAc(b1-2)Man(a1-6)]Man(b1-4)GlcNAc(b1-4)[Fuc(a1-6)]GlcNAc", "method_in_brief": "as §1"}, "[23]": {"biological_target": "Fuc(a1-2)[GalNAc(a1-3)]Gal(b1-4)GlcNAc(b1-3)Gal(b1-4)GlcNAc", "method_in_brief": "as §1"}, "[24]": {"biological_target": "Fuc(a1-2)[GalNAc(a1-3)]Gal(b1-4)GlcNAc(b1-3)Gal(b1-4)GlcNAc(b1-3)Gal(b1-4)GlcNAc", "method_in_brief": "as §1"}, "[25]": {"biological_target": "Fuc(a1-2)[GalNAc(a1-3)]Gal(b1-4)GlcNAc(b1-3)GalNAc", "method_in_brief": "as §1"}, "[26]": {"biological_target": "Fuc(a1-2)[GalNAc(a1-3)]Gal(b1-4)GlcNAc(b1-3)[Fuc(a1-2)[GalNAc(a1-3)]Gal(b1-4)GlcNAc(b1-6)]GalNAc", "method_in_brief": "as §1"}, "[27]": {"biological_target": "Fuc(a1-2)[GalNAc(a1-3)]Gal(b1-4)GlcNAc(b1-6)GalNAc", "method_in_brief": "as §1"}, "[28]": {"biological_target": "Fuc(a1-2)[GalNAc(a1-3)]Gal(b1-4)[Fuc(a1-3)]GlcNAc", "method_in_brief": "as §1"}, "[29]": {"biological_target": "Fuc(a1-2)[GalNAc(a1-3)]Gal(b1-4)[Fuc(a1-3)]GlcNAc(b1-3)GalNAc", "method_in_brief": "as §1"}, "[30]": {"biological_target": "Fuc(a1-2)[GalNAc(a1-4)]Gal(b1-4)GlcNAc", "method_in_brief": "as §1"}}, "note": "The list shows a part of the results.", "data": [{"binder": "B1", "values": [{"measurement": "glycan array binding signal (z-score)", "setting": "[1]", "result": 0.109}, {"measurement": "glycan array binding signal (z-score)", "setting": "[2]", "result": -0.133}, {"measurement": "glycan array binding signal (z-score)", "setting": "[3]", "result": -0.236}, {"measurement": "glycan array binding signal (z-score)", "setting": "[4]", "result": -0.138}, {"measurement": "glycan array binding signal (z-score)", "setting": "[5]", "result": -0.253}, {"measurement": "glycan array binding signal (z-score)", "setting": "[6]", "result": -0.21}, {"measurement": "glycan array binding signal (z-score)", "setting": "[7]", "result": -0.183}, {"measurement": "glycan array binding signal (z-score)", "setting": "[8]", "result": -0.239}, {"measurement": "glycan array binding signal (z-score)", "setting": "[9]", "result": 0.045}, {"measurement": "glycan array binding signal (z-score)", "setting": "[10]", "result": -0.161}, {"measurement": "glycan array binding signal (z-score)", "setting": "[11]", "result": -0.104}, {"measurement": "glycan array binding signal (z-score)", "setting": "[12]", "result": -0.175}, {"measurement": "glycan array binding signal (z-score)", "setting": "[13]", "result": -0.104}, {"measurement": "glycan array binding signal (z-score)", "setting": "[14]", "result": -0.222}, {"measurement": "glycan array binding signal (z-score)", "setting": "[15]", "result": -0.164}, {"measurement": "glycan array binding signal (z-score)", "setting": "[16]", "result": -0.086}, {"measurement": "glycan array binding signal (z-score)", "setting": "[17]", "result": -0.14}, {"measurement": "glycan array binding signal (z-score)", "setting": "[18]", "result": -0.019}, {"measurement": "glycan array binding signal (z-score)", "setting": "[19]", "result": -0.278}, {"measurement": "glycan array binding signal (z-score)", "setting": "[20]", "result": -0.022}, {"measurement": "glycan array binding signal (z-score)", "setting": "[21]", "result": 0.028}, {"measurement": "glycan array binding signal (z-score)", "setting": "[22]", "result": -0.199}, {"measurement": "glycan array binding signal (z-score)", "setting": "[23]", "result": -0.278}, {"measurement": "glycan array binding signal (z-score)", "setting": "[24]", "result": -0.043}, {"measurement": "glycan array binding signal (z-score)", "setting": "[25]", "result": -0.303}, {"measurement": "glycan array binding signal (z-score)", "setting": "[26]", "result": -0.263}, {"measurement": "glycan array binding signal (z-score)", "setting": "[27]", "result": -0.271}, {"measurement": "glycan array binding signal (z-score)", "setting": "[28]", "result": -0.261}, {"measurement": "glycan array binding signal (z-score)", "setting": "[29]", "result": -0.151}, {"measurement": "glycan array binding signal (z-score)", "setting": "[30]", "result": -0.097}]}]}
